Assay results published in the supplement of paper PMC10126150.
Sequences with one replicate were seen in a single cluster, so their values are uncertain.

Test system: ATP
Assay: switch fluorescence ratio, 500 uM ATP over buffer (Cy3 cluster intensity, sum of 5 cycles each) (fold (ratio)); higher = stronger signal-on switching upon ATP binding; sequences stand for … in TCGTCGGCAGCGTCAGATGTGTATAAGAGACAGTTTTTTTTTTTTTTTTTTTTTTTTT…TC
Conditions: aptamer strand: ATP DNA aptamer (quencher-CACCTGGGGGAGTATTGCGGAGGAAGG + anchor), 100 nM annealed; ATP concentration: 500 uM; one replicate
How it was run: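 Between each of five buffer/ATP cycles, the flow-cell was stripped with NaOH and re-annealed. Each cycle imaged Cy3-labelled switching-strand clusters, annealed to 100 nM quencher-labelled ATP aptamer on a modified Illumina MiSeq flow-cell, first in selection buffer and then after 15 min with 500 uM ATP at 22 °C. The fluorescence ratio is summed target-cycle over summed buffer-cycle Cy3 intensity per cluster, averaged per switch-domain sequence, with clusters outside 100-1000 RFU excluded.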
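Note: ATP exposure 15 min at 22 °C before imaging.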

Row | Sequence | switch fluorescence ratio
1 | GATCAGTTTA | 1.03
2 | GTTAGTGGGA | 1.09
3 | TTTTGCTCTT | 0.979
4 | TGCGATATAT | 0.987
5 | CCTGAAATGA | 1.07
6 | AGTCTTTACC | 0.975
7 | GCCAGCGACT | 1.02
8 | ACTTGCGACA | 1.08
9 | AGACATGTTC | 0.956
10 | ACAGTAGGAG | 1.01
11 | TCCTTCTTTT | 1.21
12 | TATGGAGCG | 0.907
13 | TCATACCAGT | 1.01
14 | TTCATCTTCG | 1.04
15 | AGATAGAAGA | 0.97
16 | ATAAGGGAAA | 0.994
17 | GGCACATATG | 0.98
18 | TTATACGATT | 0.993
19 | GTATGGTTGA | 0.981
20 | CCTGGCGT | 1.04
21 | GAGGGTGCTC | 1.03
22 | CACGATACAA | 1.36
23 | TGGCCGCTGG | 1.01

Row | Sequence | switch fluorescence ratio
24 | CTGGATGGGC | 0.983
25 | GATGCGGAG | 1.01
26 | TGGCCAGTGT | 1.04
27 | CATGGGCAC | 1.02
28 | GAGCTGAACC | 0.99
29 | AACGCGGTC | 1.15
30 | AGGTGTAGGT | 0.975
31 | GACCACGTGC | 1
32 | ATTAGCAACA | 1.1
33 | GGATGCCTCA | 0.974
34 | TTAGGATGCT | 0.994
35 | TGGGACGGG | 1.01
36 | GCGATCGGGT | 1
37 | AATAGGGACG | 1.09
38 | TCAGGCGAGT | 0.998
39 | GATCATTCGA | 0.977
40 | ATGAGGAGAG | 1.01
41 | AATTTGACTT | 0.957
42 | CGGCTGCGAC | 1.28
43 | TTCTTTTCCC | 1.29
44 | TCAATGCTTG | 1.02
45 | TGCGGGCACA | 1
46 | AAACGGGAAG | 1.02

Row | Sequence | switch fluorescence ratio
47 | CGCTTGTTTG | 0.95
48 | CAAACATGCT | 1.03
49 | GACCAAGCCT | 1.08
50 | GAAACACCCA | 1.07
51 | TCGAGGGGCT | 1.1
52 | TAGAAAGGAA | 1.01
53 | CACCAAGCGA | 1.25
54 | TTGGCCAGGG | 1.06
55 | CACTCGGCTT | 1.07
56 | ACTATGAGAG | 0.987
57 | ACGCCGAATT | 1.08
58 | GCTTCGGTAT | 1.05
59 | CGTGACCCTA | 1.03
60 | AATTGCCCAT | 1.02
61 | TAAATGTGCA | 1.02
62 | GGGTCCAGAT | 1.03
63 | GCCAAAGGCG | 0.99
64 | ACACTATGCG | 1.01
65 | GAATTCTGCT | 1
66 | CAGAACCCGA | 1.03
67 | CCCGCACGCG | 1.28
68 | GATATTCCGA | 1
69 | CGTAATTAAA | 1

Row | Sequence | switch fluorescence ratio
70 | CAGATAGTTG | 0.989
71 | AGGGTAATCC | 1.05
72 | GAGTTATTGC | 0.969
73 | GAAAAAACGC | 1.06
74 | TCCGTCTCGC | 1.13
75 | TGTGATTACG | 0.977
76 | AGGACTAGGG | 0.943
77 | TTGACTAGGC | 1.11
78 | TAGTGGGTGC | 0.983
79 | AATCACTTTT | 1
80 | TTACCAGAGG | 0.983
81 | TTATGATC | 1.02
82 | GATCGTTTAA | 1
83 | GGCGCTTGTC | 1.06
84 | GAACGGGCGA | 1.06
85 | GGATTTATAT | 0.974
86 | GCCCGTTCGT | 1.03
87 | TTCTGTCTCG | 0.997
88 | CAGTGCACGG | 0.956
89 | CATGGAGGTT | 1.03
90 | GGTCTGGAAA | 1.02
91 | AGACCTAAAA | 0.953
92 | TAGGTGATGG | 0.983

Row | Sequence | switch fluorescence ratio
93 | GGCCACCGAC | 1.11
94 | TGAAGCCAAG | 1.02
95 | TGGAAACGCC | 1.03
96 | AACTGAGACA | 1.03
97 | TTTAAGTTGA | 0.997
98 | GGTCACAAGG | 1
99 | ACCCGGTTTG | 1.01
100 | CTCCCAACGG | 1.3
101 | AGAATTTGCC | 1.02
102 | ATCGAGTCTC | 1.01
103 | TGTTTTTCGT | 0.964
104 | GCTCATTTCA | 0.933
105 | CTATCGTA | 1.01
106 | GCAATGTTGC | 1
107 | AATTAGTATC | 0.966
108 | AGTCTACGTA | 0.995
109 | GAGTCCTAGG | 0.962
110 | ATGCAGCCAA | 1.24
111 | GCATTACGTT | 1.26
112 | AGTATAGAAT | 0.969
113 | AATCACAAGG | 1.02
114 | GGCACCTTTC | 1.8
115 | GTATACCCAT | 1.01

Row | Sequence | switch fluorescence ratio
116 | TTACAGAGTC | 1.02
117 | CACGATTGTC | 1.13
118 | AGGTTTACGG | 1.03
119 | AAATGGATT | 1.02
120 | TATTCGATCA | 0.992
121 | CGGGGCGATA | 1.08
122 | GTTTCATTGT | 0.958
123 | CACCTAGTAT | 1.06
124 | GACCGCCGGG | 1.15
125 | TCAAAAGATT | 1.01
126 | TAGTAGGACG | 1
127 | AACGGCTAGA | 0.95
128 | GCCGATGTTG | 1.01
129 | AATGGTAAAG | 1.02
130 | CTTACGGTCT | 1.04
131 | CAATAGTCCT | 1.26
132 | GATTGCAAGT | 1.03
133 | AGAACAAATA | 1.01
134 | TCGAATAACA | 1
135 | CCGTACTTGG | 1.01
136 | GTCCCACGGA | 0.98
137 | TCGAACGTTC | 1.05
138 | CGTCGAGATG | 0.998

Row | Sequence | switch fluorescence ratio
139 | TTTGTTACAT | 0.995
140 | TGTCTCCGGA | 1.05
141 | GTTCTGTTAG | 1.01
142 | TTATGTAGGA | 0.991
143 | AGCCTATCA | 1.03
144 | GGGGGCGACC | 1.03
145 | TATACGCAGA | 1.25
146 | GGTGTGGG | 1.1
147 | AGTCTTTATG | 0.974
148 | CAGTCGGTC | 0.986
149 | AAAATCTGTA | 0.926
150 | TCGGGGCTTA | 0.996
151 | AGGACGAAA | 1.11
152 | TTGACCTTCT | 1.6
153 | ACACAGGAC | 2.1
154 | ATTGTCCCTT | 1.05
155 | GGTAGAAGCA | 0.966
156 | TATGATGAGT | 1.05
157 | GGAATGTATG | 1.04
